Reference: PMC12889043
These are yes or no findings as the source states them, for the method shown. Binding seen in cells or lysates may run through a third protein. Some results given as binding are weak or reduced against the parent protein; the word gives no strength. Tags and fused reporters may be left off the sequences shown.

By UniProt entry, the sequences of proteins in these tests, tags left out.
UniProt P19474: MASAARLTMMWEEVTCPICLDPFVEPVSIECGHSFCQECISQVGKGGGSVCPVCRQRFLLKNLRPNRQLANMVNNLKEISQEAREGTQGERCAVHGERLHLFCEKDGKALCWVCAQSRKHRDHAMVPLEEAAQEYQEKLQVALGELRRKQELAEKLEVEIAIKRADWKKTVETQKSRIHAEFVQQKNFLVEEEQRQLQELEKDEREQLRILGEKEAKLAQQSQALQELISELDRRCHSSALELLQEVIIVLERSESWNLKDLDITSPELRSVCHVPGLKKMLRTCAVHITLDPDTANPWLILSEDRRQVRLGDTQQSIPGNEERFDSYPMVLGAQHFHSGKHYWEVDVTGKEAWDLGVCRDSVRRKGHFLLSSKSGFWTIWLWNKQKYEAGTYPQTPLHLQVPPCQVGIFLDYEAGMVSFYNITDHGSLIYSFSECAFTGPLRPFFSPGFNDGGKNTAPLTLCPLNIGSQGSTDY

T1: HA-IKKε (IκB kinase epsilon) (UniProt Q14164)
T1 sequence: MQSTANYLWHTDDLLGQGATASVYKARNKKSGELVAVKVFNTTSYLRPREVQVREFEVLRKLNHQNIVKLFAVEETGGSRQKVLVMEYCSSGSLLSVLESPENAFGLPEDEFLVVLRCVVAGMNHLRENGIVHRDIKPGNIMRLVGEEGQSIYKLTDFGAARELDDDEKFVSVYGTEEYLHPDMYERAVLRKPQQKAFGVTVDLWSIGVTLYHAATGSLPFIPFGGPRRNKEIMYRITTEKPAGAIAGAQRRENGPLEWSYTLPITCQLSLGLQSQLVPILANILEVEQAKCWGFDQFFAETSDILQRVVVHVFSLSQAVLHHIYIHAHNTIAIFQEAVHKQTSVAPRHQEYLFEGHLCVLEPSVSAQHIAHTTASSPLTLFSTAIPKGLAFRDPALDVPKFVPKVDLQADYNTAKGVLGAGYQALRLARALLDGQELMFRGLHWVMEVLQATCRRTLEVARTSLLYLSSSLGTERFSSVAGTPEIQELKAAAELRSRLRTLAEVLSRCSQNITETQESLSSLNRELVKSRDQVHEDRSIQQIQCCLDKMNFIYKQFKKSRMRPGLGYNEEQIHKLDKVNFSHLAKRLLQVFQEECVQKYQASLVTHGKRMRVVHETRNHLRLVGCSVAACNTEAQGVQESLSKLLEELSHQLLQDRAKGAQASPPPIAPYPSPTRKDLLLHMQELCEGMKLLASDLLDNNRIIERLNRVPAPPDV


Columns and labels:
[1] = target: T1, HA-IKKε (IκB kinase epsilon); test: co-IP; HEK293T co-transfected with Flag-RND3 and HA-IKKε, 24 h; precipitate blotted with anti-Flag (precipitating antibody not stated)
HA-TRIM21 = HA-TRIM21 (UniProt P19474); test: co-IP; HEK293T transfected with HA-TRIM21 and Flag-hRND3, 24 h; IP with anti-HA antibody (1:100); blot with anti-Flag
[2] = target: T1, HA-IKKε (IκB kinase epsilon); test: co-IP; HEK293T transfected with Myc-hRND3, HA-IKKε and Flag-TRIM21; after 12 h infected with EMCV at MOI 0.01 for 12 h; IP with anti-HA antibody (1:100); blot with anti-Flag

| binding [1] | binding (HA-TRIM21) | binding [2] | Binder |
| --- | --- | --- | --- |
| binds | binds |  | Flag-tagged full-length human RND3 (pcDNA3.1-Flag-hRND3) (protein, UniProt P61587 1-244) MKERRASQKLSSKSIMDPNQNVKCKIVVVGDSQCGKTALLHVFAKDCFPENYVPTVFENYTASFEIDTQRIELSLWDTSGSPYYDNVRPLSYPDSDAVLICFDISRPETLDSVLKKWKGEIQEFCPNTKMLLVGCKSDLRTDVSTLVELSNHRQTPVSYDQGANMAKQIGAATYIECSALQSENSVRDIFHVATLACVNKTNKNVKRNKSQRATKRISHMPSRPELSAVATDLRKDKAKSCTVM |
|  |  | binds | Myc-tagged full-length human RND3 (pcDNA3.1-Myc-hRND3) (protein, UniProt P61587 1-244) MKERRASQKLSSKSIMDPNQNVKCKIVVVGDSQCGKTALLHVFAKDCFPENYVPTVFENYTASFEIDTQRIELSLWDTSGSPYYDNVRPLSYPDSDAVLICFDISRPETLDSVLKKWKGEIQEFCPNTKMLLVGCKSDLRTDVSTLVELSNHRQTPVSYDQGANMAKQIGAATYIECSALQSENSVRDIFHVATLACVNKTNKNVKRNKSQRATKRISHMPSRPELSAVATDLRKDKAKSCTVM |
